Measurements from the supplement of paper PMC8728848.
The other results are listed elsewhere or left out.

How the values were obtained:
Experiment in all cases: glycan array binding signal (z-score within array); higher = stronger binding
Settings in all cases: glycan notation: IUPAC condensed, linker removed; mutation: R74S
GalNAc(b1-4)GlcNAc = target: GalNAc(b1-4)GlcNAc
Procedure, shortened: (§1)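 Glycan array data were curated from 3228 arrays in the Consortium for Functional Glycomics database and kept only where the protein sequence was available. Glycan names were converted to IUPAC-condensed notation, and columns mapping to the same glycan were averaged. The binding signal is a within-array Z-score, averaged across arrays of the same protein sequence at different concentrations or buffers and across linkers. Negative Z-scores can be read as non-binding.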

[1] = target: GalNAc(b1-4)GlcNAc(b1-2)Man
Procedure, shortened: as §1

[2] = target: GalNAc(b1-4)GlcNAc(b1-2)Man(a1-3)[GalNAc(b1-4)GlcNAc(b1-2)Man(a1-6)]Man(b1-4)GlcNAc(b1-4)GlcNAc
Procedure, shortened: as §1

[3] = target: GalNAc(b1-4)GlcNAc(b1-3)GalNAc(b1-4)GlcNAc
Procedure, shortened: as §1

GalNAc(b1-4)GlcNAc6S = target: GalNAc(b1-4)GlcNAc6S
Procedure, shortened: as §1

GalNAc(b1-6)GalNAc = target: GalNAc(b1-6)GalNAc
Procedure, shortened: as §1

GalNAc3S(b1-4)GlcNAc = target: GalNAc3S(b1-4)GlcNAc
Procedure, shortened: as §1

GalNAc3S(b1-4)GlcNAc3S = target: GalNAc3S(b1-4)GlcNAc3S
Procedure, shortened: as §1

[4] = target: GalNAc3S(b1-4)[Fuc(a1-3)]GlcNAc
Procedure, shortened: as §1

GalNAc4S6S(b1-4)GlcNAc = target: GalNAc4S6S(b1-4)GlcNAc
Procedure, shortened: as §1

GalNAc6S(b1-4)GlcNAc = target: GalNAc6S(b1-4)GlcNAc
Procedure, shortened: as §1

Glc(a1-4)Glc = target: Glc(a1-4)Glc
Procedure, shortened: as §1

[5] = target: Glc(a1-4)Glc(a1-4)Glc(a1-4)Glc
Procedure, shortened: as §1

Glc(a1-6)Glc(a1-6)Glc = target: Glc(a1-6)Glc(a1-6)Glc
Procedure, shortened: as §1

[6] = target: Glc(a1-6)Glc(a1-6)Glc(a1-6)Glc
Procedure, shortened: as §1

Glc(b1-4)Glc = target: Glc(b1-4)Glc
Procedure, shortened: as §1

Glc(b1-6)Glc = target: Glc(b1-6)Glc
Procedure, shortened: as §1

GlcA(b1-3)Gal = target: GlcA(b1-3)Gal
Procedure, shortened: as §1

GlcA(b1-3)GlcNAc = target: GlcA(b1-3)GlcNAc
Procedure, shortened: as §1

GlcA(b1-6)Gal = target: GlcA(b1-6)Gal
Procedure, shortened: as §1

[7] = target: GlcA3S(b1-3)Gal(b1-4)GlcNAc(b1-2)Man
Procedure, shortened: as §1

[8] = target: GlcA3S(b1-3)Gal(b1-4)GlcNAc(b1-3)Gal(b1-4)Glc
Procedure, shortened: as §1

[9] = target: GlcNAc(a1-3)Gal(b1-4)GlcNAc
Procedure, shortened: as §1

[10] = target: GlcNAc(a1-4)Gal(b1-3)GlcNAc
Procedure, shortened: as §1

[11] = target: GlcNAc(a1-4)Gal(b1-4)GalNAc
Procedure, shortened: as §1

[12] = target: GlcNAc(a1-4)Gal(b1-4)GlcNAc
Procedure, shortened: as §1

[13] = target: GlcNAc(a1-4)Gal(b1-4)GlcNAc(b1-3)Gal(b1-4)Glc
Procedure, shortened: as §1

[14] = target: GlcNAc(a1-4)Gal(b1-4)GlcNAc(b1-3)Gal(b1-4)GlcNAc
Procedure, shortened: as §1

[15] = target: GlcNAc(a1-4)Gal(b1-4)GlcNAc(b1-3)Gal(b1-4)GlcNAc(b1-3)Gal(b1-4)GlcNAc
Procedure, shortened: as §1

[16] = target: GlcNAc(a1-4)Gal(b1-4)GlcNAc(b1-3)Gal(b1-4)[Fuc(a1-3)]GlcNAc(b1-3)Gal(b1-4)[Fuc(a1-3)]GlcNAc
Procedure, shortened: as §1

[17] = target: GlcNAc(a1-6)Gal(b1-4)GlcNAc
Procedure, shortened: as §1

[18] = target: GlcNAc(b1-2)Gal(b1-3)GalNAc
Procedure, shortened: as §1

[19] = target: GlcNAc(b1-2)Man(a1-3)[GlcNAc(b1-2)Man(a1-6)]Man(b1-4)GlcNAc(b1-4)GlcNAc
Procedure, shortened: as §1

[20] = target: GlcNAc(b1-2)Man(a1-3)[GlcNAc(b1-2)Man(a1-6)]Man(b1-4)GlcNAc(b1-4)[Fuc(a1-6)]GlcNAc
Procedure, shortened: as §1

[21] = target: GlcNAc(b1-2)Man(a1-3)[GlcNAc(b1-4)][GlcNAc(b1-2)Man(a1-6)]Man(b1-4)GlcNAc(b1-4)GlcNAc
Procedure, shortened: as §1

[22] = target: GlcNAc(b1-2)Man(a1-3)[GlcNAc(b1-4)][GlcNAc(b1-2)Man(a1-6)]Man(b1-4)GlcNAc(b1-4)[Fuc(a1-6)]GlcNAc
Procedure, shortened: as §1

[23] = target: GlcNAc(b1-2)[GlcNAc(b1-4)]Man(a1-3)[GlcNAc(b1-2)Man(a1-6)]Man(b1-4)GlcNAc(b1-4)GlcNAc
Procedure, shortened: as §1

[24] = target: GlcNAc(b1-2)[GlcNAc(b1-4)]Man(a1-3)[GlcNAc(b1-4)][GlcNAc(b1-2)Man(a1-6)]Man(b1-4)GlcNAc(b1-4)GlcNAc
Procedure, shortened: as §1

[25] = target: GlcNAc(b1-2)[GlcNAc(b1-4)]Man(a1-3)[GlcNAc(b1-4)][GlcNAc(b1-2)[GlcNAc(b1-6)]Man(a1-6)]Man(b1-4)GlcNAc(b1-4)GlcNAc
Procedure, shortened: as §1

[26] = target: GlcNAc(b1-2)[GlcNAc(b1-4)]Man(a1-3)[GlcNAc(b1-4)][GlcNAc(b1-2)[GlcNAc(b1-6)]Man(a1-6)]Man(b1-4)GlcNAc(b1-4)[Fuc(a1-6)]GlcNAc
Procedure, shortened: as §1

[27] = target: GlcNAc(b1-2)[GlcNAc(b1-6)]Man(a1-6)[GlcNAc(b1-2)Man(a1-3)]Man(b1-4)GlcNAc(b1-4)GlcNAc
Procedure, shortened: as §1

[28] = target: GlcNAc(b1-2)[GlcNAc(b1-6)]Man(a1-6)[GlcNAc(b1-2)Man(a1-3)]Man(b1-4)GlcNAc(b1-4)[Fuc(a1-6)]GlcNAc
Procedure, shortened: as §1

[29] = target: GlcNAc(b1-2)[GlcNAc(b1-6)]Man(a1-6)[GlcNAc(b1-4)][GlcNAc(b1-2)Man(a1-3)]Man(b1-4)GlcNAc(b1-4)GlcNAc
Procedure, shortened: as §1

GlcNAc(b1-3)Fuc = target: GlcNAc(b1-3)Fuc
Procedure, shortened: as §1

GlcNAc(b1-3)Gal = target: GlcNAc(b1-3)Gal
Procedure, shortened: as §1

B1: Gal 7 (Homo sapiens) (protein)
chain: MSNVPHKSSLPEGIRPGTVLRIRGLVPPNASRFHVNLLCGEEGGSDAALHFNPRLDTSEVVFNSKEGGSWGREESGPGVPFGRGQPFEVLIIASDDGFKAVVGDAQYHHFRHRLPLARVRLVEVGGDVQLDSVRIF
B1 was tested, and the “glycan array binding signal (z-score)” value (GalNAc(b1-4)GlcNAc) was 0.29, the “glycan array binding signal (z-score)” value [1] was -0.462 and the “glycan array binding signal (z-score)” value [2] was 0.227. For the same binder, the “glycan array binding signal (z-score)” value [3] was 0.573, the “glycan array binding signal (z-score)” value (GalNAc(b1-4)GlcNAc6S) was -0.198 and the “glycan array binding signal (z-score)” value (GalNAc(b1-6)GalNAc) was -0.385. The “glycan array binding signal (z-score)” value (GalNAc3S(b1-4)GlcNAc) was -0.421, the “glycan array binding signal (z-score)” value (GalNAc3S(b1-4)GlcNAc3S) was -0.604 and the “glycan array binding signal (z-score)” value [4] was -0.364. The “glycan array binding signal (z-score)” value (GalNAc4S6S(b1-4)GlcNAc) was -0.49, the “glycan array binding signal (z-score)” value (GalNAc6S(b1-4)GlcNAc) was -0.472 and the “glycan array binding signal (z-score)” value (Glc(a1-4)Glc) was 0.327. For the same binder, the “glycan array binding signal (z-score)” value [5] was -0.298, the “glycan array binding signal (z-score)” value (Glc(a1-6)Glc(a1-6)Glc) was -0.271 and the “glycan array binding signal (z-score)” value [6] was 0.051. For the same binder, the “glycan array binding signal (z-score)” value (Glc(b1-4)Glc) was 0.037, the “glycan array binding signal (z-score)” value (Glc(b1-6)Glc) was 0.081 and the “glycan array binding signal (z-score)” value (GlcA(b1-3)Gal) was -0.566. For the same binder, the “glycan array binding signal (z-score)” value (GlcA(b1-3)GlcNAc) was -0.533, the “glycan array binding signal (z-score)” value (GlcA(b1-6)Gal) was -0.495 and the “glycan array binding signal (z-score)” value [7] was -0.489. For the same binder, the “glycan array binding signal (z-score)” value [8] was -0.404, the “glycan array binding signal (z-score)” value [9] was -0.402 and the “glycan array binding signal (z-score)” value [10] was -0.326. For the same binder, the “glycan array binding signal (z-score)” value [11] was -0.587, the “glycan array binding signal (z-score)” value [12] was -0.246 and the “glycan array binding signal (z-score)” value [13] was -0.682. The “glycan array binding signal (z-score)” value [14] was -0.406, the “glycan array binding signal (z-score)” value [15] was -0.457 and the “glycan array binding signal (z-score)” value [16] was 0.884. The “glycan array binding signal (z-score)” value [17] was -0.306, the “glycan array binding signal (z-score)” value [18] was -0.255 and the “glycan array binding signal (z-score)” value [19] was -0.145. The “glycan array binding signal (z-score)” value [20] was -0.071, the “glycan array binding signal (z-score)” value [21] was -0.02 and the “glycan array binding signal (z-score)” value [22] was -0.203. For the same binder, the “glycan array binding signal (z-score)” value [23] was -0.253, the “glycan array binding signal (z-score)” value [24] was -0.174 and the “glycan array binding signal (z-score)” value [25] was -0.243. For the same binder, the “glycan array binding signal (z-score)” value [26] was -0.168, the “glycan array binding signal (z-score)” value [27] was 0.231 and the “glycan array binding signal (z-score)” value [28] was 0.961. The “glycan array binding signal (z-score)” value [29] was -0.37, the “glycan array binding signal (z-score)” value (GlcNAc(b1-3)Fuc) was 0.85 and the “glycan array binding signal (z-score)” value (GlcNAc(b1-3)Gal) was -0.488.
